Data published in paper PMC4336329 (PLoS ONE, 2015).
The campaign covered roughly 310,000 compounds. About 14,000 (4.5%) showed an effect of 50% or more. The effect is printed as a negative number. Some of the results follow.

target: human ether-à-go-go-related gene (hERG) potassium channel (human, UniProt Q12809); assay: primary screen, population patch clamp on CHO cells stably expressing hERG
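Further: peak tail current of the secondary pulse compared with the same well before compound.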

Sequence of human ether-à-go-go-related gene (hERG) potassium channel (Q12809 whole entry, looked up): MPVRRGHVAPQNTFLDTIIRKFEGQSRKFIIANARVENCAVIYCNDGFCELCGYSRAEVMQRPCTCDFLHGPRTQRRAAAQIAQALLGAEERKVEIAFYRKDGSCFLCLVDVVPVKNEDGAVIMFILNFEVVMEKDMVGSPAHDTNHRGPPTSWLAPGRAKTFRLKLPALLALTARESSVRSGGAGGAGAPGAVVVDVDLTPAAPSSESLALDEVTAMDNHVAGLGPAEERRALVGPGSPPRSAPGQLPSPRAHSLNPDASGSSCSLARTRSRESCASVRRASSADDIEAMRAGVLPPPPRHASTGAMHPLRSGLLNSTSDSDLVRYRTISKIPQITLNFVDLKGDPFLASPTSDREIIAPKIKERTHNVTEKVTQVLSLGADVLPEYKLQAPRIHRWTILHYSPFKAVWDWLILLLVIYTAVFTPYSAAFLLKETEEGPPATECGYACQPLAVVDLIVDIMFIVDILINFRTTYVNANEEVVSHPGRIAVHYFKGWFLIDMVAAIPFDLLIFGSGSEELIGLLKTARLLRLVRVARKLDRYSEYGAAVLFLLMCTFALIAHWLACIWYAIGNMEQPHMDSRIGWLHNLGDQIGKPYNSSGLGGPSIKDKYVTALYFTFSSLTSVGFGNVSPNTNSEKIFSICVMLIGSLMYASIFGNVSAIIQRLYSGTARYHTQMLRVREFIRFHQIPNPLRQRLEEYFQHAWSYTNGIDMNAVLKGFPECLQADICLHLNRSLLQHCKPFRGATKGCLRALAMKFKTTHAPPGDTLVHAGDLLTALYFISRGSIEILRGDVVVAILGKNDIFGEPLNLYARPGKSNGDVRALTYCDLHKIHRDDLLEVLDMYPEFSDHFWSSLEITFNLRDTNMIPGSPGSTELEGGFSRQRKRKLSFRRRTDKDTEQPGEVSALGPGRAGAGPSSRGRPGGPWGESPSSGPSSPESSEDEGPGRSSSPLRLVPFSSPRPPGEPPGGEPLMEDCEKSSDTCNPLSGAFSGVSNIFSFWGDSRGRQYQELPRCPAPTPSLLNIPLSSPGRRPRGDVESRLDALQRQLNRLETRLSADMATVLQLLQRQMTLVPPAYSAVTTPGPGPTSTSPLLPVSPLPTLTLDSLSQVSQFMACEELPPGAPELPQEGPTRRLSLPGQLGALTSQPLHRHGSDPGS

Row | SMILES | hERG current change (%, negative = inhibition) at 10uM
1 | O=C(COC(=O)/C=C/c1ccc(OC(F)F)cc1)NC1CCCCCCC1 | -3.07%
2 | O=C(/C=C/c1ccc2ccccc2n1)N1CCN(S(=O)(=O)c2ccc(F)cc2)CC1 | -52.4%
3 | CCCn1c(N)c(C(=O)COc2ccc(Br)cc2F)c(=O)n(C)c1=O | 11.8%
4 | O=C(Nc1c2c(nc3ccccc13)CCCC2)c1ccccc1Br | 4.09%
5 | COc1ccc(C2=NOC(C(=O)Nc3ccc(C(C)=O)cc3)C2)cc1OC (centres unmarked) | -11.4%
6 | O=C(NCc1ccco1)C12CC3CC(C1)CC(C(=O)NCc1ccco1)(C3)C2 | 2.32%
7 | Cc1ccc2[nH]c(=O)cc(C(=O)OCC(=O)c3ccc(F)cc3)c2c1 | 6.34%
8 | Cc1nn(-c2ccc(Cl)c(Cl)c2Cl)c(=O)c2ccccc12 | -35.2%
9 | Cc1cc2nnc(SCC(=O)NCc3cccs3)n2c(N)n1 | -8.37%
10 | C=C(C)Cn1c(-c2ccncc2)n[nH]c1=S | 33%
11 | COc1cc(OC)c(NC(=O)C2CCCO2)cc1Cl (centres unmarked) | 1.53%
12 | O=C(CN1C(=O)NC2(CCCCC2)C1=O)Nc1ccc(F)cc1 | 2%
13 | Cc1nnc(N2CCc3ccccc3C2)[nH]c1=O | 3.3%
14 | O=C(NC1CCCCC1)c1cc(S(=O)(=O)N2CCOCC2)c(Cl)cc1Cl | 13.6%
15 | COC(=O)C1=C(c2ccc(Cl)c(C(F)(F)F)c2)C[C@@H]2CC[C@H]1N2C(=O)NC1CC1 | 2.47%
16 | CCc1ccc(OCC(=O)NNC(=O)CSc2ncnc3sc(C)c(C)c23)cc1 | 1.55%
17 | CN(CCOc1ccc(Br)cc1)CC(O)COc1ccc(C#N)cc1 (centres unmarked) | -16.3%
18 | O=C(NCc1cccnc1)C1CCCCN1S(=O)(=O)c1ccc(F)cc1 (centres unmarked) | -20.9%
19 | COc1ccc(C)cc1N1CC(C(=O)Nc2ccccc2N2CCCCC2)CC1=O (centres unmarked) | -19.5%
20 | O=C(N/N=C/c1cn(Cc2ccccc2)c2ccccc12)c1ccncc1 | -11.2%
21 | O=C(c1ccc(CSc2nc3ccncc3[nH]2)cc1)N1CCCCCC1 | -28%
22 | COc1ccc2c3n(nc2c1)CCN=C3c1ccc(C)cc1 | -14.3%
23 | COc1ccc(-c2nc(-c3ccccc3)no2)c(OC)c1 | -5.16%

Row | SMILES | hERG current change (%, negative = inhibition) at 10uM
24 | CS(=O)(=O)c1nc2c(cc1C#N)CCCC2 | 14.9%
25 | CCN(CC)CCOC(=O)C12CC3CC(CC(C3)C1)C2 | -5.01%
26 | CCN1C(=O)CC(N2CCC(c3nc4ccccc4[nH]3)CC2)C1=O (centres unmarked) | 1.03%
27 | Cc1ccc(-c2noc(C3CCCN(C(=O)c4ccccc4)C3)n2)o1 (centres unmarked) | -13.1%
28 | COc1ccc(CC(=O)Nc2ccccc2N2CCOCC2)cc1OC | 4.34%
29 | COC(=O)c1ccccc1S(=O)(=O)NC(=O)c1ccccc1 | -1.01%
30 | CC/C(=N\NC(=O)C(N)=O)c1ccccc1O | 12.6%
31 | CCc1cc2c(SCC(=O)N(C)C3CCS(=O)(=O)C3)ncnc2s1 (centres unmarked) | -20.1%
32 | CCOP(=O)(OCC)c1ccc(OP(=O)(c2cccc([N+](=O)[O-])c2)c2cccc([N+](=O)[O-])c2)cc1 | 14.3%
33 | Cc1ccccc1NC(=O)CSc1n[nH]c(-c2ccco2)n1 | 10.1%
34 | CCCCN1C(=S)SC(C)(C)C1/[N+]([O-])=C/c1cccnc1 (centres unmarked) | -2.41%
35 | Cc1ccc(C2C(C#N)=C(N)Oc3n[nH]c(-c4cccs4)c32)s1 (centres unmarked) | 13.9%
36 | N#Cc1ccc(C(=O)N2CCN(S(=O)(=O)c3ccc(Cl)s3)CC2)cc1 | -49.9%
37 | Cc1ccc(-n2c(SCC(=O)N(C)C3CCS(=O)(=O)C3)nc3ccccc3c2=O)cc1 (centres unmarked) | 11%
38 | COc1ccc(CCNC(=O)CSC2=NS(=O)(=O)c3cc(Cl)ccc3N2)cc1OC | 10.6%
39 | CC(=O)Nc1ccc(NC(=O)C(C)Sc2n[nH]c(=O)n2Cc2ccccc2)cc1 (centres unmarked) | 16%
40 | Cc1ccc(C(CC(=O)N2CCNCC2)c2ccccc2)c(O)c1C (centres unmarked) | -63.8%
41 | COc1ccc(/C=C/C(=O)OCC(=O)Nc2cc(C(N)=O)cc(C(N)=O)c2)cc1 | 18.2%
42 | COC(=O)c1ccc(NC(=O)NC2CCCCC2)cc1 | 7.92%
43 | Cc1ccc(Cl)cc1NC(=O)COC(=O)c1ccc(CN2CCCC2=O)cc1 | 7.64%
44 | O=C(O)CCCCCNC(=O)c1cccc(Br)c1 | 12%
45 | Cc1ccnc(NC(=O)c2cc3ccccc3o2)c1 | -18.4%
46 | CCOc1ccc(C2Sc3ccccc3NC3=C2C(=O)OC3)cc1 (centres unmarked) | -6.58%

Row | SMILES | hERG current change (%, negative = inhibition) at 10uM
47 | Cc1ccc(C)c(NC(=O)C(CC(=O)O)C2CCCO2)c1 (centres unmarked) | 10.3%
48 | O=C(Cn1ncc2c3ccccc3n(Cc3ccccc3F)c2c1=O)NCCCN1CCCC1=O | -5%
49 | C/C(=N\NC(=S)NCCc1ccccc1)c1ccc(C)cc1 | 8.17%
50 | CCn1nc(C)c(CN2CCN(Cc3ccc(OC)c(C)c3C)C(CCO)C2)c1C (centres unmarked) | -45.8%
51 | CCOC(=O)CC(NCc1ccc(OC)c(OCC)c1)c1ccc(C)cc1.Cl (centres unmarked) | -39%
52 | C(=N\N1CCN(c2ccccn2)CC1)/c1cccc2ccccc12 | 9.74%
53 | Cc1nnsc1-c1c(C(=O)O)c(C)nn1-c1ccc(OC(F)(F)F)cc1 | 15%
54 | CSc1ccccc1C(=O)Nc1ccccc1C(=O)NC(C)C | 45.3%
55 | CCOC(=O)Cn1c(=O)oc2cc(S(=O)(=O)NC(C)c3ccccc3)ccc21 (centres unmarked) | -18.9%
56 | NC1=NC(=O)/C(=C/c2ccsc2)S1 | 15.3%
57 | CCOc1ccc(CN(C)C(=O)c2ccc3c(c2)NC(=O)C(C)S3)cc1OC (centres unmarked) | -47.4%
58 | O=C(NCCC1=CCCCC1)c1cc2ccccc2oc1=O | 10.1%
59 | O=C(C1CCN(c2nc(-c3ccccc3)nc3c2CCC3)CC1)N1CCC(O)CC1 | -33.4%
60 | O=C(NCc1ccc(Cl)cc1)c1cc([N+](=O)[O-])ccc1Cl | 19.3%
61 | Cc1ccc(S(=O)(=O)CCC(=O)Nc2nc(-c3ccccn3)cs2)cc1 | -16%
62 | N#CCCn1cc(C(=O)NCc2ccccc2)c(-c2cccs2)n1 | -17.6%
63 | O=C(CC1Nc2ccccc2NC1=O)NCc1cccnc1 (centres unmarked) | 0.464%
64 | CN(C(=O)c1cccc(C#N)c1)c1nnc(C2CCCO2)s1 (centres unmarked) | 11.7%
65 | COc1cc(C(=O)NCCNc2nc3cc(C)ccc3cc2C#N)cc(OC)c1OC | 0.746%
66 | CN(Cc1nc(Cc2ccccc2F)no1)[C@@H]1CS(=O)(=O)C[C@H]1O | -41.6%
67 | CCOc1ccc(/C(O)=C2/C(=O)C(=O)N(CCN(C)C)C2c2ccccc2)cc1Cl (centres unmarked) | -5.2%
68 | CC(=O)N1CCc2cc(S(=O)(=O)NC(Cc3ccccc3)C(=O)NCCN3CCCCC3C)ccc21 (centres unmarked) | 5.72%
69 | CCNC(=O)CC1C(=O)N(c2ccc(F)cc2)C(=O)N1CCc1ccc(OC)cc1 (centres unmarked) | -23.5%

Row | SMILES | hERG current change (%, negative = inhibition) at 10uM
70 | Cc1cc2ccccc2c(=O)n1CC(=O)NCc1ccco1 | 13.8%
71 | Cc1nc2n[nH]c(N)c2c2c1CCCC2 | -1.41%
72 | COc1ccc(SC[C@H](CC(C)C)N2CCN(C)CCC2=O)cc1 | -36.3%
73 | CCC1=C(OC(=O)c2ccccc2)C(C)(C)C(c2ccccc2)OC1=O (centres unmarked) | -5.55%
74 | O=[N+]([O-])c1cc2c(cc1Br)CCN2 | 11.2%
75 | CCOC(=O)CN1C(=O)N(CC(=O)OCC)C(c2ccccc2)(c2ccccc2)C1=O | -11.1%
76 | O=C1c2oc3ccccc3c(=O)c2C(c2cccnc2)N1CCCN1CCOCC1 (centres unmarked) | 10.8%
77 | Brc1ccccc1-c1ccccc1 | 14.1%
78 | Cc1c(N2C(=O)c3ccc(F)cc3C2=O)c(=O)n(-c2ccccc2)n1C | 13.6%
79 | Nc1c(S(=O)(=O)c2cccs2)c2nc3ccccc3nc2n1Cc1cccs1 | 7.16%
80 | CC1CC(C)CN(CC(=O)N2CCCc3c2c(=O)oc2ccc(OCc4ccccc4)cc32)C1 (centres unmarked) | -4.71%
81 | c1ccc(-n2nnnc2NCCc2c[nH]c3ccccc23)cc1 | 5.85%
82 | COC(=O)c1nn(-c2ccc3c(c2)OCO3)cc1O | 1.71%
83 | Cc1ccc(NC(=O)C2CCCN(S(=O)(=O)c3cccnc3)C2)c(C)c1 (centres unmarked) | 9.18%
84 | CC(=O)Nc1ccc(S(=O)(=O)N2CCC(=O)Nc3ccccc32)cc1 | 21.2%
85 | CN(C)CCSc1nc(-c2ccccc2)nc2c1CCC2 | -61.3%
86 | Cc1ccc(-c2csc(N(CCCN3CCOCC3)C(=O)c3ccco3)n2)cc1.Cl | -19.1%
87 | Cc1cc(C)c2c(=O)[nH]c(SCC(=O)N(C)C)nc2n1 | -0.697%
88 | CCN1CCN(Cc2ccc(NC(=O)c3ccc(C)c(NC(=O)c4cccc5[nH]ccc45)c3)cc2C(F)(F)F)CC1 | 1.17%
89 | CC1(C)Cc2nc3sc4c(OCc5ccccc5)ncnc4c3cc2CO1 | 2.14%
